# Experimental data from PubChem BioAssay AID1745849 (National Center for Advancing Translational Sciences (NCATS), 2022).
# Out of some 2,100 compounds screened, about 320 (15%) were called active. The inconclusive results got no clear call from the source; some entries with a clear call stand among them for comparison. Calls follow the shape of the dose curve; as a rule, active = well fitted cell-killing curve with a large enough effect; inconclusive = small, poorly fitted or top-dose-only effect, or effect the other way; inactive = flat fitted curve, though single readings scatter. Potencies beside an inconclusive call are fits to weak or partial responses and may not hold up.
# Assay: Viability Counterscreen for CMV-Luciferase Assay of Inhibitors of ATXN expression; also: nearly all actives have a fitted effect of over 55% in size
# Settings: HEK-293 CMV-luciferase cells viability, protease fluorescence, 24 h; activity change, negative = cytotoxicity: at the top concentration
# Procedure, shortened: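 In the same wells, a multiplexed format measured viability and then the CMV-luciferase signal in HEK-293 cells following 24 hr compound exposure at several concentrations. The viability substrate was Gly-Phe-AFC at 25 uM final.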
# % is scaled to controls: 0 for no effect and ±100 for the full control effect; potency is read from the fitted curve at half-maximal effect; tags tell the direction and shape of the fitted curve.
SMILES,Potency,"activity change, negative = cytotoxicity"
Cc1cc(C)c(C(=O)/C=C/c2ccc(C(C)C)cc2)c(=O)[nH]1,active: 17.8 µM,–
O=C(N/N=C/c1cc(Cl)ccc1O)c1ccccc1Br,–,inactive: 6.59% [at 57.5 µM]
O=C(NC1=CC(=O)c2ccccc2C1=O)c1ccccc1,"inconclusive: 39.8 µM [rising, single point]",–
Cc1ccc(O)c(CNCCNCc2cc(C)ccc2O)c1,"inconclusive: 14.1 µM [cytotoxic, partial curve]",–
CN(CCOc1ccc(Cl)cc1)C(=O)c1cc(S(=O)(=O)N2CCOCC2)ccc1N1CCCC1,"inconclusive: 5.01 µM [cytotoxic, partial curve, poor fit]",–
O=C(CCCC(=O)Nc1cccc(Br)c1)N/N=C/c1cc([N+](=O)[O-])ccc1O,"inconclusive: 3.16 µM [cytotoxic, single point]",–
CCOc1ccc(-c2nnc(Nc3ccc(OC)c(C(=O)N4CCCCC4)c3)c3ccccc23)cc1,"inconclusive: 3.16 µM [cytotoxic, partial curve]",–
Cc1cc(C)nc(NNS(=O)(=O)c2ccc(F)c(Cl)c2)n1,–,inactive: -11.6%
O=C(N/N=C/c1cc(O)ccc1Br)c1cccnc1,"inconclusive: 0.891 µM [cytotoxic, full curve]",–
COc1ccc(-c2n[nH]c(C)c2-c2cnn(-c3ccccc3)c2)c(O)c1C,"inconclusive: 39.8 µM [cytotoxic, single point]",–
Cc1ccccc1SCC(=O)N1CCN(c2ccc(C(F)(F)F)cn2)CC1,–,inactive: -1.97%
O=C(Cn1c(=O)n(CC(=O)NCc2ccccc2)c2ccccc21)NCc1ccccc1,"inconclusive: 39.8 µM [cytotoxic, single point]",–
CCCCC(=O)NC(c1ccco1)c1cc(Cl)c2cccnc2c1O (stereo not drawn),–,inactive: 12.6% [at 57.5 µM]
CCCCOc1ccc(C(=O)NNC(=O)c2cnccn2)cc1OC,"inconclusive: 17.8 µM [cytotoxic, partial curve, poor fit]",–
COc1ccc(-c2n(CC(=O)OC3CC(C)CCC3C(C)C)c3ccccc3[n+]2C)cc1 (stereo not drawn),active: 7.94 µM,–
CN[C@H]1C[C@H]2c3[nH]c4ccc(-c5ccc(OC)cc5)cc4c3CCN2C(=O)[C@H]1[C@H](C)O,"inconclusive: 4.47 µM [cytotoxic, partial curve, poor fit]",–
COc1cnc(-c2ccccn2)nc1NC(C)C,active: 6.31 µM,–
Cc1cc(N/N=C/c2ccccc2[N+](=O)[O-])nc(-n2nc(C)cc2C)n1,active: 12.6 µM,–
COc1cccc(/C=N/NC(=O)c2c(C)nc3ccc(Cl)cn23)c1O,"inconclusive: 0.794 µM [cytotoxic, full curve]",–
COc1cc(C(=O)NCc2ccncc2)cc(Br)c1OCc1ccccc1,"inconclusive: 8.91 µM [cytotoxic, single point]",–
COCc1cc(CN2CCCC2)c(O)c2ncccc12,"inconclusive: 2.82 µM [cytotoxic, partial curve]",–
Cc1[nH]c(-c2ccc(F)cc2)cc1C(=O)N1CCN(c2ccc(Cl)cc2)CC1,"inconclusive: 20 µM [cytotoxic, single point]",–
CC(C)(C)c1ccc(Oc2ccc(N)cc2)cc1,–,inactive: -10.3% [at 57.5 µM]
O=C(/C=C/c1ccccc1)NC(=S)NNC(=O)c1cnccn1,active: 10 µM,–
COc1ccc2c(c1)CC(N1CCN(C)CC1)c1cc(OC)ccc1S2 (stereo not drawn),active: 28.2 µM,–
CCCC(=O)NC(c1ccccc1)c1ccc2cccnc2c1O (stereo not drawn),"inconclusive: 2.82 µM [cytotoxic, partial curve, poor fit]",–

SMILES,Potency,"activity change, negative = cytotoxicity"
Nc1ccn([C@@H]2O[C@H](CO)[C@@H](O)[C@@H]2O)c(=O)n1,–,inactive: -22.1%
O=C(Oc1c(CN2CCOCC2)cc(Cl)c2cccnc12)c1cccs1,–,inactive: 6.23% [at 57.5 µM]
O=C(COc1ccccc1Cl)Nc1ccc(N2CCN(C(=O)c3ccccc3)CC2)cc1,"inconclusive: 8.91 µM [cytotoxic, single point]",–
O=C(N/N=C/c1c(O)ccc2ccccc12)c1cccc(C(F)(F)F)c1,"inconclusive: 39.8 µM [rising, single point]",–
COc1ccc(N2C3=C(CC4=C2CC(C)(C)CC4=O)C(=O)CC(C)(C)C3)cc1,–,inactive: -5%
N#Cc1nc(COc2ccc(-c3ccccc3)cc2)oc1NCc1cccnc1,–,inactive: -12.5%
CCN(CC)CCC(c1ccc2c(c1)OCO2)c1c(OC)cc(OC)c2c(-c3ccccc3)cc(=O)oc12 (stereo not drawn),active: 17.8 µM,–
Cc1onc(-c2ccccc2)c1C(=O)Nc1ccc(S(=O)(=O)NC(C)(C)C)cc1,–,inactive: 24.8% [at 57.5 µM]
C=CCOc1ccc(CNc2ccc3[nH]c(=O)[nH]c3c2)cc1OC,"inconclusive: 39.8 µM [rising, single point]",–
Clc1ccc(SCc2cc(N3CCOCC3)nc(-c3ccccn3)n2)cc1,active: 17.8 µM,–
O=C(CSCc1ccc(Cl)cc1)Nc1cc([N+](=O)[O-])ccc1O,"inconclusive: 3.55 µM [cytotoxic, partial curve]",–
NNC(=O)/C(=N/Nc1ccccc1)S(=O)(=O)c1ccc(Cl)cc1,active: 10 µM,–
CC(C)(C)n1nnnc1C(c1cccs1)N(Cc1ccc(Cl)cc1)CC1CCCO1 (stereo not drawn),–,inactive: -29.5% [at 57.5 µM]
O=C(NC1C=CS(=O)(=O)C1)c1sc2ccccc2c1Cl (stereo not drawn),"inconclusive: 3.16 µM [cytotoxic, single point]",–
CC(C)=CCc1ccc(O)c(=O)cc1C(C)C,–,inactive: -27.9%
COc1cccc(/C=N/Nc2ncnc3c2ncn3Cc2ccccc2)c1O,"inconclusive: 2 µM [cytotoxic, partial curve, poor fit]",–
CCN(CC)c1ccc(/C=N/NC(=O)CCC(=O)NCc2ccccc2)c(O)c1,"inconclusive: 2 µM [cytotoxic, partial curve, poor fit]",–
CN(c1ccccc1)c1ccc(/C=N/NC(=O)CC#N)cc1,–,inactive: -8.07% [at 57.5 µM]
COc1cc(OC)c(C(=O)C=Cc2ccc(OC)c(OC)c2)c(OC)c1,active: 20 µM,–
CCOc1cc(/C=N/Nc2cc(C)nc(-n3nc(C)cc3C)n2)ccc1O,"inconclusive: 2 µM [cytotoxic, partial curve, poor fit]",–
O=C(N/N=C/c1cc(Cl)ccc1O)c1ccncc1,"inconclusive: 39.8 µM [rising, single point]",–
CCN(CC)S(=O)(=O)c1ccc(C(=O)Nc2ccc(Cc3ccncc3)cc2)cc1,–,inactive: 3.95% [at 57.5 µM]
CCOC(=O)c1c(C)oc2c(F)c(F)c(F)c(F)c2c1=O,"inconclusive: 3.55 µM [cytotoxic, partial curve, poor fit]",–
COc1ccccc1CNc1nc(NCc2ccc(NC(C)=O)cc2)c2sccc2n1,–,inactive: -1.81%
NS(=O)(=O)c1ccc(CCNC(=O)COC(=O)/C=C/c2cc(Br)ccc2F)cc1,–,inactive: 3.54%
O=C(N/N=C/c1cc(Cl)ccc1O)c1cccnc1,–,inactive: -5%

SMILES,Potency,"activity change, negative = cytotoxicity"
Cc1ccc(/C=C2\SC(=S)N(CCCC(=O)Nc3ccc(O)cc3)C2=O)cc1,–,inactive: -5.85%
COc1cc(OC)cc(-c2cc3nc(C)c(CCC(=O)NCc4ccccc4)c(C)n3n2)c1,–,inactive: 0.755% [at 57.5 µM]
Cc1ccc(NC(=O)CNC(=O)c2cccc(Cl)c2)nc1,"inconclusive: 25.1 µM [cytotoxic, partial curve]",–
Cc1ncc(CO)c(/C=N/Nc2ccc(C(F)(F)F)cn2)c1O,"inconclusive: 7.08 µM [cytotoxic, single point]",–
CCCCn1c(SCC(=O)Nc2cc(NC(=O)c3ccco3)ccc2C)nc2ccccc2c1=O,"inconclusive: 11.2 µM [cytotoxic, partial curve]",–
CN(C)CCNc1ccc(CO)c2sc3ccc(O)cc3c(=O)c12,"inconclusive: 10 µM [cytotoxic, partial curve, poor fit]",–
CCc1nc2ccc(C(=O)Nc3cccc(NS(C)(=O)=O)c3)cn2c1N(C)CCCc1ccccc1,"inconclusive: 31.6 µM [cytotoxic, single point]",–
CC(C)n1cnc2c(N(C)c3ccccc3)nc(N(CCN(C)C)Cc3ccccc3)nc21,"inconclusive: 22.4 µM [cytotoxic, single point]",–
Cc1ccsc1/C=C/C1=Cc2c(sc(NC(=O)CSc3n[nH]c(N)n3)c2C#N)C(C)(C)C1,–,inactive: 2.76% [at 57.5 µM]
Cc1cc(C)c2c(N)c3cccc(C)c3nc2n1,"inconclusive: 35.5 µM [rising, partial curve]",–
O=C(c1c(F)cccc1F)N1CCCC(c2nc(-c3ccc(Cl)cc3)no2)C1 (stereo not drawn),–,inactive: -6.28% [at 57.5 µM]
CC1(Cc2ccc(C(F)(F)F)o2)C(=O)Nc2ccc(-c3cccc(C(F)(F)F)c3)cc21 (stereo not drawn),"inconclusive: 39.8 µM [cytotoxic, single point]",–
CN1CCN(c2cc(-c3cc(O)c4ncccc4c3)ccn2)CC1,"inconclusive: 20 µM [cytotoxic, partial curve]",–
O=C1CCCC(O)=C1C=NCc1ccccc1,–,inactive: 6.84%
Cc1ccc2nc(-c3ccccc3)nn2c1,–,inactive: 0.418%
O=C(CN(c1cccc(Br)c1)S(=O)(=O)c1ccccc1)N/N=C/c1cc([N+](=O)[O-])ccc1O,"inconclusive: 10 µM [cytotoxic, partial curve, poor fit]",–
COc1ccc(C2=NN(C(=O)c3ccc(Cl)c([N+](=O)[O-])c3)C(c3ccccc3)C2)cc1 (stereo not drawn),"inconclusive: 25.1 µM [cytotoxic, single point]",–
Cc1ccc2cc(C3C(C#N)=C(N)Oc4c3ccc3cccnc43)c(=O)[nH]c2c1 (stereo not drawn),"inconclusive: 5.01 µM [cytotoxic, full curve, poor fit]",–
CC(C)(CO)NCc1c(OCc2ccc(Cl)cc2)ccc2ccccc12,"inconclusive: 15.8 µM [cytotoxic, partial curve, poor fit]",–
Cn1c(=O)c2c(nc(SCCN3CCOCC3)n2Cc2cccc3ccccc23)n(C)c1=O,–,inactive: 3.04%
NC(N)=N/N=C/c1ccc(Cl)c(Cl)c1,"inconclusive: 14.1 µM [cytotoxic, partial curve]",–
CCOC(=O)c1c(NC(=O)CSc2nnnn2-c2ccccc2)sc2c1CC(C)(C)NC2(C)C,–,inactive: -17.6%
CC1(C)c2[nH]c3ccccc3c2C[C@H]2C(=O)N(Cc3cccc(F)c3)C(=O)N21,"inconclusive: 39.8 µM [cytotoxic, single point]",–
C=CCn1c(CNc2ccc(C)cc2)nnc1SCC(=O)N/N=C/c1ccc(O)cc1O,"inconclusive: 7.94 µM [cytotoxic, full curve, poor fit]",–
COc1ccc(N=Cc2cc3c(cc2O)OC(N)=C(C#N)C3c2ccccc2)cc1 (stereo not drawn),"inconclusive: 1.41 µM [cytotoxic, partial curve, poor fit]",–
COc1ccc2nc(C)c3c(c2c1)OC(C(C)(Cl)Br)C3 (stereo not drawn),–,inactive: -24.3%
